Screen size: about 350,000 compounds; about 9,900 (2.8%) were called active. The inconclusive results got no clear call from the source; some entries with a clear call stand among them for comparison. The call rests on the fitted dose curve; in most records, active means well fitted activation curve with a large enough effect; inconclusive means small, poorly fitted or top-dose-only effect; inactive means no such curve, though single readings can be large or run the other way. No potency is given beside an inconclusive call; the fits are too rough.
Experiment: A quantitative high throughput screen for small molecules that induce DNA re-replication in MCF 10a normal breast cells. Further: nearly all actives have a fitted effect of over 50% in size.
Conditions: MCF 10A DNA re-replication, Hoechst nuclear intensity, 48 h; series mostly up to 46.1 µM
Potency means the concentration at half of the fitted maximal effect; tags describe the fitted curve by direction and shape.

SMILES	Potency
CCOC(=O)c1c(C)[nH]c(C)c1S(=O)(=O)N1CCC(c2ccccc2)C1 (centres undefined)	inconclusive [activator, partial curve, poor fit]
Cc1ccc(OCCn2c(Br)nc3c2c(=O)n(C)c(=O)n3C)cc1	inactive
COc1ccc(Cl)cc1NC(=O)CN(C)C(=O)C1CCN(C(=O)Nc2ccccc2)CC1	inactive
N#C/C(=C\c1cn(-c2ccccc2)nc1-c1cc2ccccc2o1)c1nc2ccccc2[nH]1	inconclusive [activator, partial curve, poor fit]
Cn1ccnc1SCC(=O)n1c2c(c3ccccc31)CCCC2	inactive
CCCCN1C(=O)C(O)=C(C(C)=O)C1c1ccccc1 (centres undefined)	inactive
CCOc1ccc2c(c1)-c1c(ssc1=S)C(C)(C)N2C(=O)CSC1=NCCS1	inactive
CC(C)[C@H](NS(=O)(=O)c1ccccc1)C(=O)OCC(=O)N1N=C(c2ccc(Cl)cc2)CC1c1ccco1 (some centres undefined)	inactive
CC1(C)CC(=O)/C(=C(\O)c2ccccc2)C(=NCCc2ccccc2)C1	inconclusive [activator, partial curve, poor fit]
COc1cccc(OC)c1OCCCCN1CCC(Cc2ccccc2)CC1	inactive
Cc1cc(C)nc(SCc2nnc(SCC(=O)Nc3nc(-c4ccccc4)cs3)n2C)n1	inconclusive [activator, full curve, poor fit]
Cc1c(C(=O)N2CCCCC2C)sc2ncnc(N3CCc4ccccc4C3)c12 (centres undefined)	inconclusive [activator, partial curve, poor fit]
COCC(=O)Nc1ccc(S(=O)(=O)NCC2CCCO2)cc1 (centres undefined)	inactive
COc1ccc(/C=C/C(=O)c2ccc(NC(=O)c3cccs3)cc2)cc1OC	active: 9.2 µM
C=CCSc1nc2c(c(=O)[nH]c(=O)n2C)n1Cc1ccccc1	inconclusive [activator, single point]
COCCn1c(-c2ccccc2F)n[nH]c1=S	inactive
O=C(Nn1c(C2CCCCC2)nc2ccccc2c1=O)c1ccc([N+](=O)[O-])cc1Cl	inconclusive [activator, single point]
N#Cc1c(NC(=O)C2CC(c3c(F)cccc3Cl)=NO2)sc2c1CCC2 (centres undefined)	inconclusive [activator, partial curve, poor fit]
COc1ccc(N(Cc2ccccc2)C(=O)c2ccccc2[N+](=O)[O-])cc1	inactive
O=C(NC(=S)N1CCc2ccccc21)C1CCC1	inactive
CCC(Oc1ccccc1)C(=O)Nc1cc(C(F)(F)F)ccc1N1CCOCC1 (centres undefined)	inconclusive [activator, single point]
CC(C)c1csc(CN2CCC(CO)(Cc3cccc(F)c3)CC2)n1	inconclusive [activator, partial curve, poor fit]

SMILES	Potency
COc1ccc(N/C=C/C(=O)c2ccc3c(c2)OCO3)cc1OC	inconclusive [activator, single point]
Cc1cccc(C(=O)OCC(=O)N2CCC(c3ccccc3)=N2)c1O	inactive
COc1ccc(N(C(=O)c2cnccn2)C(C(=O)NC2CCCCC2)c2ccccc2)cc1 (centres undefined)	inconclusive [activator, single point]
CC(=O)Nc1sc(C)c(C)c1C(=O)OCC(=O)Nc1cccc(C)c1	active: 8.2 µM
O=C(Nc1ccc(S(=O)(=O)N2CCCC2)cc1)C1CCN(S(=O)(=O)c2ccc(F)cc2)CC1	inactive
Cc1nc(SCC(=O)NCC2CCCO2)c2cc(-c3ccccc3)sc2n1 (centres undefined)	active: 20.6 µM
CC(=O)/C(C#N)=C1\NC(=O)C(Cc2ccccc2Cl)S1 (centres undefined)	inconclusive [activator, full curve, poor fit]
O=C(N/N=C/c1ccncc1)c1ccc(COc2cccc3cccnc23)cc1	inconclusive [activator, single point]
O=C1OC(c2ccccc2)(c2ccc3cc(O)ccc3c2)c2ccccc21 (centres undefined)	inconclusive [activator, single point]
COc1ccccc1CN1CCN(C(c2ccccc2)c2ccccc2)CC1	inconclusive [activator, single point]
Cc1ccccc1-n1c(SCC(=O)N/N=C/c2sccc2C)nc2ccccc2c1=O	inconclusive [activator, full curve, poor fit]
COc1cc([N+](=O)[O-])cc(/C=C2/SC(=S)N(Cc3ccccc3)C2=O)c1O	inconclusive [activator, single point]
CCN(CC)c1ccc2cc(-c3nc4ccccc4n3C)c(=O)oc2c1	inconclusive [activator, full curve, poor fit]
NC(=O)C1CCN(CC(=O)Nc2ccccc2Sc2ccc(Cl)cc2)CC1	inactive
NS(=O)(=O)c1ccc(CCNc2ncnc3sccc23)cc1	inconclusive [activator, partial curve, poor fit]
COc1ccccc1NC(=S)N(Cc1ccccc1)Cc1cccnc1	inconclusive [activator, partial curve, poor fit]
O=C(Nc1ccc(-c2nc3ccc(NC(=O)c4cccs4)cc3[nH]2)cc1)c1cccs1	inconclusive [activator, single point]
CC(=O)Nc1sc(N/N=C/c2ccc(O)cc2)nc1-c1ccc(C)cc1	inconclusive [activator, single point]
CC1(C)Cc2c(c(N3CCOCC3)nc3sc(C(=O)Nc4cccc(Cl)c4)c(N)c23)CO1	inconclusive [activator, single point]
Cc1cc(C)cc(-n2ncc3c2CCCC3NC(=O)C2(C(N)=O)CC2)c1 (centres undefined)	inconclusive [activator, single point]
NS(=O)(=O)c1ccc(CNC(=S)Nc2cc(S(=O)(=O)N3CCOCC3)ccc2Cl)cc1	inactive
CC(C)n1cc(CNC(=O)C2CCC(=O)N(Cc3ccccc3F)C2)cn1 (centres undefined)	inactive
